Measurements taken from article PMC10726135.
The other results are listed elsewhere or left out. At the low end of the ranking the order means little. The protein was read in a cell extract, so binding may be indirect.

Target: T1, HNF4alpha2 (COS-7 nuclear extract) (UniProt P41235)
T1 sequence: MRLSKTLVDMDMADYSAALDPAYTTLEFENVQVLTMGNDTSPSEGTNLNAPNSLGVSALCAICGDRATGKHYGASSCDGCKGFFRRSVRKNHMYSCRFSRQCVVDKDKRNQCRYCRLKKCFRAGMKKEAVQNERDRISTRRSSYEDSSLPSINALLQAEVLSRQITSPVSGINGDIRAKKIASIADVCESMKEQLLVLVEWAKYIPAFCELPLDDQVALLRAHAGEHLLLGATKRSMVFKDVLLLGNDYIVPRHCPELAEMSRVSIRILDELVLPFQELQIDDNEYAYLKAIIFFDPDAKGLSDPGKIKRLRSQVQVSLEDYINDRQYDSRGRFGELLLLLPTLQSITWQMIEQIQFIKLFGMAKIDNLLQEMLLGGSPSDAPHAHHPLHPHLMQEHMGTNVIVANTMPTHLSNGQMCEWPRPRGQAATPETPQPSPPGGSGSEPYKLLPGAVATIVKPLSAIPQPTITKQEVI
Assay: protein-binding microarray
Details: COS-7 nuclear extract on double-stranded Agilent 4x180k PBM; binding buffer, salt, pH and temperature not given; high values mean tight binding; double strand, one strand shown; sequences stand for … in …GCCTAGGGAGATTAGAGTATCGGTCGA

Row | Sequence | binding signal (log2 normalized intensity)
1 | GTCATTGGTATCCACAGAGTTCATAATTTT | 0.879
2 | AAAGTGTCAAGTAGAGACCTGTCTTCCTGG | 0.537
3 | ATTTGGACTTTTACTCTTAGAGATAATGGG | 2.13
4 | AGTACAGGGCGTCCTTGATAAGCAAGATGA | -1.17
5 | TGGACACACGAATAATGGAGCTGATGTCCT | 1.34
6 | ACAAGTGTACAAAGGTCACTTCTGTTCATT | 5.87
7 | TAGCACTTTGGACCTCCACTTTGGAGGGGG | 1.7
8 | AGCCACTCATTCTTGGAATGCATTGCAAGT | 0.284
9 | GCAGAAGAATGGATGAGCTAATCAGAGCAT | -1.16
10 | TTCTCATCCGCTAATGACACCAGGGAACAC | 0.493
11 | TGAATTCTGCAGCAGATGGCCAGCCTTTGG | -0.936
12 | CACTGGCTGCTGCTCAGGAGACCGAGCAGC | -1.02
13 | TGAGCAGGCAGTGTCACAGAAATCATGTAG | 0.722
14 | CAACCCTCCTCCCTTTGGCCATGAAAGTAT | 2.04
15 | ATCAGAGCTGGAGGAGACCTTTGGATATCA | 2.97
16 | AGATATGAGGCCAGTTTTCCCAAAGGAGCT | -1.07
17 | CCTCTGAGGTGTTAACCTGATGCTGAAGTC | 0.962
18 | GCCCTGTTTAGGAGGAAATAGAGAGCAGAC | -0.746
19 | GAAAGATAAAAGGCCATAGGGAAAGATAAA | -1.13
20 | ATGAGATACCCATTCACATGACCTTTGTCC | 8.34
21 | TCAAGGGGAAGAAATCTAAGATTTATAAAG | -1.06
22 | CACTTAGCACAAGTGACTATTCTGGTTTGC | 0.921
23 | CAGCAGCAGGCAGGGACTTTGGCCCACGGT | 2.6
24 | GCAGCGGGTCAATTAGCTTGAGCGAGACAG | -1.05
25 | GGTTCAAAGGTCATTTCTGCTTGCAACCAA | 5.52

Row | Sequence | binding signal (log2 normalized intensity)
26 | GCATTGAAAGCACTAATTAACTGAGCCTCA | -1.13
27 | GTGACTGAGCAGAGATTTGACCTAAGTCTG | 0.817
28 | CCATGAGCTGGCCTCACTAAGTCCTGCTTA | -1.15
29 | TGGTAAATAAAGGAACTTACGAAGATAAAT | -1.13
30 | CCTTTGTACCAAAATCACACTGGGAATTGG | -0.799
31 | GTGTGCGTTTCCCAGATATCTCTGGTAAAC | -1.15
32 | CTTGCTTTCTGCCCAGGGAGGTGCCTGTGC | 1.04
33 | AGGCTTTGAGTCAACACACCTGTGGGTAAT | 0.341
34 | CTAACAAAGCTCAGGGCAAAGACTCAAATC | -1.03
35 | GGTAGATAAGGGAGTTTCAGAGGACTGCCC | -1.12
36 | CAGCTTTGACGCCACCTGAAGGCAGGTGTG | -1.05
37 | ACCTATTCTCTCTGAGGGCTACTATCTGAA | -1.21
38 | CACTCCTCCTCCTTCCCTCCTGCTCACTTA | 1.33
39 | AATGCACTGGTGACTTTAAGTTGACTCCAA | -1.16
40 | CCTCAGTGGCTCACAAATGGAGTTTGGTTT | 2.31
41 | ATACCAGAAATTCCATGATTTTCTGGAGGA | -1.13
42 | TACATACCCAAGTTCCCTCTCAGGAATGTG | 0.152
43 | TGAACCAATCTTGAGATAAGTACACAAAAG | -0.858
44 | GGAATGTGCTTGGACCTGCTCTGTTTTCTT | 1.55
45 | AATAAATGTGTTTCATCAGTCCAATTCACA | 0.947
46 | CAACTCTAAGGGGGAAAGTCCACGTGAGAG | 2.69
47 | TGAGTGGAATATGAGGTCAGGGTTCATCTG | 3.43
48 | CTTGTGTAATCCTGCAACAGCCCCATGAGA | 2.19
49 | GATATTTCCCCTTTGACTTAGGATCAGTAG | 1.64
50 | ATCAAATTAACACAGCTCTAGAGGGCTGCT | -1.13

Row | Sequence | binding signal (log2 normalized intensity)
51 | ATATCCCTGAGAGGCCAGTTTGACCTTTGC | 8.38
52 | GGATAAAAGGGGAAAAGGTCAAATACCAAA | 1.79
53 | GCAAAGCTGCTATGAGCTATGATTGCGCCA | -1.08
54 | TGAGGAGCCAAGTTTTGCAACATACTGAAA | -0.75
55 | CTTATCACATTCTGCTCTTGAACCAGAGAA | -0.621
56 | CAGTCCCTATAGCCTCACTTGCTGATAAGG | -0.63
57 | TGTGTGCTGCGCGGGGCCTCCCAGTGGTAT | 0.376
58 | GAGCCTGGACATTTGCCACCAATGCCTCTA | -1.14
59 | TACCGGCAGAGGCTGCAGAGGTTTCGCAAG | -1.13
60 | AACATAATATTTAGCTTTCAGTGACTGCTC | -1.03
61 | TGTCCAGCACACCTTTTTTTCATGCAAATT | 0.631
62 | TTTCTGCCTGTGATGTCCTTCCCTCAGCAA | -0.881
63 | TAGTTGACCTTTGAGAACCTCCCATCAGCT | 3.12
64 | AACCCAGGGTCACAAGGATCCCATTCATGT | -0.884
65 | GACTGACTTAACCCTTGCCTGGCATGGCCT | -0.487
66 | TGTTACCACCCAGACCAGTAACCTAAGTCA | -1.08
67 | CAAAGTCCTGGAAGAAACCCATTTGTTAGT | 1.24
68 | CAGGGAGCCCTTATATCCACATGGGTCCAA | 2.29
69 | CGGGCAGCCTGTGGCCAGGCTGCGTTTCAA | -0.657
70 | TCCTTGACTTCAAAGGCATTTCTGGACTTG | 2.89
71 | ACAGGTGCTCTTTATCAGCACCAAGAACAA | -1.12
72 | ATCATTGCCTCTGGTATGCAGAAAAGCAAG | -0.771
73 | GCTGACCTTTGGTCTAAACCTACTTAGATC | 4.25
